The other results are listed elsewhere or left out. Sequences were assembled here from the parent chain. Values near 0.05 are background.
B1: TEV protease; numbered along this chain (parent)
chain: MGESLFKGPRDYNPISSSICHLTNESDGHTTSLYGIGFGPFIITNKHLFRRNNGTLVVQSLHGVFKVKDTTTLQQHLVDGRDMIIIRMPKDFPPFPQKLKFREPQREERICLVTTNFQTKSMSSMVSDTSCTFPSGDGIFWKHWIQTKDGQCGSPLVSTRDGFIVGIHSASNFTNTNNYFTSVPKNFMELLTNQEAQQWVSGWRLNADSVLWGGHKVFMVKPEEPFQPVKEATQL

Variants of: B1
Assay: raw area under fraction-flipped curve 0-4 h after induction (AUC4h, not background-subtracted), DNA-recorder readout of cleavage of the substrate (dimensionless); higher = more cleavage of the substrate by the protease variant
Conditions: temperature: 34 °C; time window: 0-4 h after rhamnose induction
Protocol: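 In vivo DNA recorder in E. coli TOP10(DE3) ΔrhaA at 34 °C. Each TEVp single-site mutant (parent TEVp 0) is paired with a single-site variant of the 7-mer TEVs (canonical ENLYFQ|S). The substrate sits between flexible linkers in a Bxb1-sfGFP-TEVs-SsrA fusion, so cleavage stabilises Bxb1 and speeds flipping of a recombination array, read by NGS. The value is the raw area under the fraction-flipped curve over 0-4 h after rhamnose induction (AUC4h), with ≥20 reads per time point. It is not background-subtracted; inactive controls average about 0.047.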
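Further: Bxb1 expression induced with 0.2% (w/v) L-rhamnose at OD600 near 0.5, cultures sampled hourly, flipped fraction per protease–substrate barcode pair counted by paired-end Illumina sequencing.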

Row | Variant | area with substrate ENAYFQS | area with substrate ENDYFQS | area with substrate ENFYFQS | area with substrate ENGYFQS | area with substrate ENKYFQS | area with substrate ENMYFQS | area with substrate ENNYFQS | area with substrate ENPYFQS | area with substrate ENQYFQS | area with substrate ENSYFQS | area with substrate ENTYFQS | area with substrate ENVYFQS | area with substrate ENCYFQS | area with substrate ENEYFQS | area with substrate ENHYFQS | area with substrate ENIYFQS | area with substrate ENRYFQS | area with substrate ENWYFQS | area with substrate ENYYFQS
1 | MGESLFKGPRDYNPISSSICHLTNESDGHTTSLYGIGFGPFIIINKHLFRRNNGTLVVQSLHGVFKVKDTTTLQQHLVDGRDMIIIRMPKDFPPFPQKLKFREPQREERICLVTTNFQTKSMSSMVSDTSCTFPSGDGIFWKHWIQTKDGQCGSPLVSTRDGFIVGIHSASNFTNTNNYFTSVPKNFMELLTNQEAQQWVSGWRLNADSVLWGGHKVFMVKPEEPFQPVKEATQL [T44I] | 0.0579 | 0.059 | 0.048 | 0.09 | 0.0579 | 0.0559 | 0.0618 | 0.0618 | 0.0477 | 0.049 | 0.0491 | 0.0519 | – | – | – | – | – | – | –
2 | MGESLFKGPRDYNPISSSICHLTNESDGHTTSLYGIGFGPFIITEKHLFRRNNGTLVVQSLHGVFKVKDTTTLQQHLVDGRDMIIIRMPKDFPPFPQKLKFREPQREERICLVTTNFQTKSMSSMVSDTSCTFPSGDGIFWKHWIQTKDGQCGSPLVSTRDGFIVGIHSASNFTNTNNYFTSVPKNFMELLTNQEAQQWVSGWRLNADSVLWGGHKVFMVKPEEPFQPVKEATQL [N45E] | 0.0598 | 0.0597 | 0.0608 | 0.0692 | 0.0431 | – | 0.0604 | 0.0618 | 0.0584 | 0.0539 | 0.0595 | 0.056 | 0.0619 | 0.0605 | 0.0537 | 0.059 | 0.0628 | 0.0443 | 0.069
3 | MGESLFKGPRDYNPISSSICHLTNESDGHTTSLYGIGFGPFIITPKHLFRRNNGTLVVQSLHGVFKVKDTTTLQQHLVDGRDMIIIRMPKDFPPFPQKLKFREPQREERICLVTTNFQTKSMSSMVSDTSCTFPSGDGIFWKHWIQTKDGQCGSPLVSTRDGFIVGIHSASNFTNTNNYFTSVPKNFMELLTNQEAQQWVSGWRLNADSVLWGGHKVFMVKPEEPFQPVKEATQL [N45P] | 0.0658 | 0.0651 | 0.0678 | 0.0616 | – | 0.077 | 0.0593 | 0.0382 | – | 0.0648 | 0.0604 | 0.0594 | 0.0787 | 0.0512 | 0.0623 | – | 0.0716 | – | –
4 | MGESLFKGPRDYNPISSSICHLTNESDGHTTSLYGIGFFPFIITNKHLFRRNNGTLVVQSLHGVFKVKDTTTLQQHLVDGRDMIIIRMPKDFPPFPQKLKFREPQREERICLVTTNFQTKSMSSMVSDTSCTFPSGDGIFWKHWIQTKDGQCGSPLVSTRDGFIVGIHSASNFTNTNNYFTSVPKNFMELLTNQEAQQWVSGWRLNADSVLWGGHKVFMVKPEEPFQPVKEATQL [G39F] | 0.0998 | 0.0456 | 0.0113 | 0.0518 | 0.037 | – | 0.0435 | 0.0447 | 0.0453 | 0.0473 | – | 0.0403 | 0.0504 | 0.0532 | 0.0382 | 0.0554 | 0.0473 | – | 0.0421
5 | MGESLFKGPRDYNPISSSICHLTNESDGHTTSLYGIGFYPFIITNKHLFRRNNGTLVVQSLHGVFKVKDTTTLQQHLVDGRDMIIIRMPKDFPPFPQKLKFREPQREERICLVTTNFQTKSMSSMVSDTSCTFPSGDGIFWKHWIQTKDGQCGSPLVSTRDGFIVGIHSASNFTNTNNYFTSVPKNFMELLTNQEAQQWVSGWRLNADSVLWGGHKVFMVKPEEPFQPVKEATQL [G39Y] | 0.0424 | 0.0498 | – | 0.0488 | 0.0451 | 0.037 | 0.0453 | 0.0496 | 0.0235 | 0.0508 | 0.0497 | – | – | 0.0501 | 0.0412 | – | – | – | –
6 | MGESLFKGPRDYNPISSSICHLTNESDGHTTSLYGIGFLPFIITNKHLFRRNNGTLVVQSLHGVFKVKDTTTLQQHLVDGRDMIIIRMPKDFPPFPQKLKFREPQREERICLVTTNFQTKSMSSMVSDTSCTFPSGDGIFWKHWIQTKDGQCGSPLVSTRDGFIVGIHSASNFTNTNNYFTSVPKNFMELLTNQEAQQWVSGWRLNADSVLWGGHKVFMVKPEEPFQPVKEATQL [G39L] | 0.0551 | 0.0812 | 0.0489 | 0.0264 | – | – | 0.0384 | 0.0314 | 0.0401 | 0.0338 | – | 0.038 | 0.0231 | 0.0531 | – | – | 0.0322 | 0.0444 | –
7 | MGESLFKGPRDYNPISSSICHLTNESDGHTTSLYGIGFGPPIITNKHLFRRNNGTLVVQSLHGVFKVKDTTTLQQHLVDGRDMIIIRMPKDFPPFPQKLKFREPQREERICLVTTNFQTKSMSSMVSDTSCTFPSGDGIFWKHWIQTKDGQCGSPLVSTRDGFIVGIHSASNFTNTNNYFTSVPKNFMELLTNQEAQQWVSGWRLNADSVLWGGHKVFMVKPEEPFQPVKEATQL [F41P] | 0.0686 | 0.0551 | 0.0493 | 0.061 | 0.058 | 0.0525 | 0.0739 | – | 0.0502 | 0.0487 | 0.0526 | 0.0484 | 0.0508 | 0.0519 | 0.0484 | 0.0461 | 0.0482 | 0.0502 | 0.0744
8 | MGESLFKGPRDYNPISSSICHLTNESDGHTTSLYGIGFGPAIITNKHLFRRNNGTLVVQSLHGVFKVKDTTTLQQHLVDGRDMIIIRMPKDFPPFPQKLKFREPQREERICLVTTNFQTKSMSSMVSDTSCTFPSGDGIFWKHWIQTKDGQCGSPLVSTRDGFIVGIHSASNFTNTNNYFTSVPKNFMELLTNQEAQQWVSGWRLNADSVLWGGHKVFMVKPEEPFQPVKEATQL [F41A] | 0.0693 | 0.0551 | 0.0585 | – | – | 0.0844 | 0.0375 | – | 0.0543 | 0.0586 | – | 0.0693 | 0.0565 | 0.0854 | – | – | 0.04 | – | 0.0604
9 | MGESLFKGPRDYNPISSSICHLTNESDGHTTSLYGIGFGPQIITNKHLFRRNNGTLVVQSLHGVFKVKDTTTLQQHLVDGRDMIIIRMPKDFPPFPQKLKFREPQREERICLVTTNFQTKSMSSMVSDTSCTFPSGDGIFWKHWIQTKDGQCGSPLVSTRDGFIVGIHSASNFTNTNNYFTSVPKNFMELLTNQEAQQWVSGWRLNADSVLWGGHKVFMVKPEEPFQPVKEATQL [F41Q] | 0.0492 | 0.0634 | 0.0606 | 0.0639 | 0.0693 | 0.0721 | 0.0535 | – | 0.0509 | 0.0411 | – | 0.0582 | 0.0502 | 0.0473 | – | 0.071 | 0.0308 | – | –

Source: the supplement of paper PMC12217912
